# Measurements as given in publication PMC5892938.
# The other results are listed elsewhere or left out. At the low end of the ranking the order means little.
# Target: GST-SBP-SLBP (stem-loop binding protein) (UniProt Q14493)
# Experiment: targeted RNA Bind-n-Seq;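 note: DESeq read counts versus GST-SBP nonspecific binding control pulldown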
# Details: RBNS binding buffer: 25 mM Tris pH 7.5, 150 mM KCl, 3 mM MgCl2, 0.1% Tween, 0.5 mg/mL BSA, 1 mM DTT; 27 nM protein, 750 pM RNA pool; temperature not stated; high values mean tight binding
row,Sequence,binding signal (log2 fold change)
1,GGUCACGUCUCAAUCAACUCAACUCCAGGAGUUUACUCCUGCUUACUCAACAGCUCGCAGUCAAG,0.152
2,GGUCACGUCUCAAUCAACUCAUUCUCAGGAGUUUCCUCCUGUAUUCUCAACAGCUCGCAGUCAAG,-0.0323
3,GGUCACGUCUCAAUCAACUCAUUCGAGGGGGGGAAAACCCCUUUACCCUCACAAUCAACAGCUCGCAGUCAAG,-0.236
4,GGUCACGUCUCAAUCAACUCUAUCCCAGGAGUUUCCUCCUGUUUACUCAACAGCUCGCAGUCAAG,0.267
5,GGUCACGUCUCAAUCAACUCAUCCUCCAGGGAAACCCCUGGUAAAUUCAACAGCUCGCAGUCAAG,-0.359
6,GGUCACGUCUCAAUCAACUCUUCUUCCAGGGAAAACCCUGGUAAACUCAACAGCUCGCAGUCAAG,0.052
7,GGUCACGUCUCAAUCAACUCAUCUUCCAGGGAAAACCCUGGUAUACUCAACAGCUCGCAGUCAAG,0.213
8,GGUCACGUCUCAAUCAACUCAAUGUCAGGAGUUUUCUCCUGCUUUUUCAACAGCUCGCAGUCAAG,0.15
9,GGUCACGUCUCAAUCAACUCCACAGAGGGGGGGAAAACCCCUUUACCCUCACUAUCAACAGCUCGCAGUCAAG,-0.184
10,GGUCACGUCUCAAUCAACUCUAUCUCCAGGGAAAACCCUGGCAUACUCAACAGCUCGCAGUCAAG,0.00975
11,GGUCACGUCUCAAUCAACUCAUCUCCCAGGGAAAGCCCUGGCAAAUUCAACAGCUCGCAGUCAAG,0.197
12,GGUCACGUCUCAAUCAACUCAUCCUCCAGGGAAAUCCCUGGCUAAUUCAACAGCUCGCAGUCAAG,0.108
13,GGUCACGUCUCAAUCAACUCAUUUUCCAGGGAAAUCCCUGGUUUAUUCAACAGCUCGCAGUCAAG,-0.0607
14,GGUCACGUCUCAAUCAACUCAUCUCCAGGAGUUUCCUCCUGUAUAUUCAACAGCUCGCAGUCAAG,-0.0762
15,GGUCACGUCUCAAUCAACUCAGUUUCAGGAGUUUCCUCCUGCUUAUUCAACAGCUCGCAGUCAAG,-0.0357
16,GGUCACGUCUCAAUCAACUCUUCGUCAGGAGUUUUCUCCUGCUAUCUCAACAGCUCGCAGUCAAG,-0.0622
17,GGUCACGUCUCAAUCAACUCAUCCUCCAGGGAAAUCCCUGGCUAUUUCAACAGCUCGCAGUCAAG,-0.0352
18,GGUCACGUCUCAAUCAACUCCCCAGAGGGGGGGAAAACCCCUUUGCCCUCAUAUUCAACAGCUCGCAGUCAAG,0.119
19,GGUCACGUCUCAAUCAACUCUUCCUCCAGGGAAAGCCCUGGUUAAUUCAACAGCUCGCAGUCAAG,-0.0591
20,GGUCACGUCUCAAUCAACUCAGUCUCAGGAGUUUACUCCUGCAUAUUCAACAGCUCGCAGUCAAG,0.013
21,GGUCACGUCUCAAUCAACUCUACUUCCAGGGAAACCCCUGGCAUACUCAACAGCUCGCAGUCAAG,0.0751
22,GGUCACGUCUCAAUCAACUCUUCUUCCAGGGAAACCCCUGGCUUUCUCAACAGCUCGCAGUCAAG,-0.0101
23,GGUCACGUCUCAAUCAACUCAAUCGCAGGAGUUUUCUCCUGGUUUUUCAACAGCUCGCAGUCAAG,0.0408
24,GGUCACGUCUCAAUCAACUCAUUUCCCAGGGAAAGCCCUGGCUUUUUCAACAGCUCGCAGUCAAG,-0.254
25,GGUCACGUCUCAAUCAACUCAUCUCCAGGAGUUUCCUCCUGCUAAUUCAACAGCUCGCAGUCAAG,-0.0268

row,Sequence,binding signal (log2 fold change)
1,GGUCACGUCUCAAUCAACUCAAGUCCCAGGGAAACCCCUGGCAAUCUCAACAGCUCGCAGUCAAG,-0.153
2,GGUCACGUCUCAAUCAACUCAGUCUCAGGAGUUUCCUCCUGCUAUCUCAACAGCUCGCAGUCAAG,0.0706
3,GGUCACGUCUCAAUCAACUCUCUAGAGGGGGGGAAAACCCCUUUGCCCUCGUAAUCAACAGCUCGCAGUCAAG,-0.268
4,GGUCACGUCUCAAUCAACUCAUACGAGGGGGGGAAAACCCCUUUACCCUCUCCAUCAACAGCUCGCAGUCAAG,0.329
5,GGUCACGUCUCAAUCAACUCUACUCCAGGAGUUUUCUCCUGCUUAUUCAACAGCUCGCAGUCAAG,0.0693
6,GGUCACGUCUCAAUCAACUCUCAAGAGGGGGGGAAAACCCCUUUACCCUCCACAUCAACAGCUCGCAGUCAAG,0.085
7,GGUCACGUCUCAAUCAACUCAACUCCAGGAGUUUACUCCUGUUUAUUCAACAGCUCGCAGUCAAG,0.152
8,GGUCACGUCUCAAUCAACUCCCUCGAGGGGGGGAAAACCCCUUUACCCUCACAAUCAACAGCUCGCAGUCAAG,0.076
9,GGUCACGUCUCAAUCAACUCAUAAGAGGGGGGGAAAACCCCUUUACCCUCAAAUUCAACAGCUCGCAGUCAAG,-0.5
10,GGUCACGUCUCAAUCAACUCAAUCUCAGGAGUUUCCUCCUGCUAUGUCAACAGCUCGCAGUCAAG,0.141
11,GGUCACGUCUCAAUCAACUCAACUCCAGGAGUUUUCUCCUGCUUUUUCAACAGCUCGCAGUCAAG,-0.095
12,GGUCACGUCUCAAUCAACUCAUCCGCAGGAGUUUACUCCUGGUAUCUCAACAGCUCGCAGUCAAG,0.0251
13,GGUCACGUCUCAAUCAACUCAACUUCAGGAGUUUCCUCCUGCUUACUCAACAGCUCGCAGUCAAG,0.125
14,GGUCACGUCUCAAUCAACUCUAUCUCAGGAGUUUACUCCUGUAAUUUCAACAGCUCGCAGUCAAG,0.0635
15,GGUCACGUCUCAAUCAACUCAUUCUCAGGAGUUUUCUCCUGUAUUUUCAACAGCUCGCAGUCAAG,0.152
16,GGUCACGUCUCAAUCAACUCAACUUCAGGAGUUUACUCCUGUUUUUUCAACAGCUCGCAGUCAAG,-0.137
17,GGUCACGUCUCAAUCAACUCUUUCUCAGGAGUUUCCUCCUGCUAAUUCAACAGCUCGCAGUCAAG,-0.0291
18,GGUCACGUCUCAAUCAACUCAACUUCCAGGGAAAGCCCUGGCAAUCUCAACAGCUCGCAGUCAAG,0.108
19,GGUCACGUCUCAAUCAACUCUCCUGAGGGGGGGAAAACCCCUUUACCCUCUAUUUCAACAGCUCGCAGUCAAG,0.0761
20,GGUCACGUCUCAAUCAACUCACUAGAGGGGGGGAAAACCCCUUUGCCCUCAACCUCAACAGCUCGCAGUCAAG,0.0561
21,GGUCACGUCUCAAUCAACUCUAUAGAGGGGGGGAAAACCCCUUUGCCCUCACAAUCAACAGCUCGCAGUCAAG,-0.318
22,GGUCACGUCUCAAUCAACUCUUUUUCCAGGGAAAACCCUGGCUAAUUCAACAGCUCGCAGUCAAG,-0.371
23,GGUCACGUCUCAAUCAACUCUUUUUCAGGAGUUUACUCCUGCUAUCUCAACAGCUCGCAGUCAAG,0.178
24,GGUCACGUCUCAAUCAACUCAUCUCCCAGGGAAACCCCUGGCAUUUUCAACAGCUCGCAGUCAAG,-0.34
25,GGUCACGUCUCAAUCAACUCUUCCUCAGGAGUUUACUCCUGUUUAUUCAACAGCUCGCAGUCAAG,0.00555

row,Sequence,binding signal (log2 fold change)
1,GGUCACGUCUCAAUCAACUCUUUUUCAGGAGUUUUCUCCUGCAUUUUCAACAGCUCGCAGUCAAG,0.0694
2,GGUCACGUCUCAAUCAACUCUACUUCCAGGGAAACCCCUGGCAUAUUCAACAGCUCGCAGUCAAG,-0.314
3,GGUCACGUCUCAAUCAACUCCCUCGAGGGGGGGAAAACCCCUUUACCCUCACUCUCAACAGCUCGCAGUCAAG,0.0176
4,GGUCACGUCUCAAUCAACUCUAUUCCCAGGGAAAGCCCUGGUUUACUCAACAGCUCGCAGUCAAG,0.134
5,GGUCACGUCUCAAUCAACUCAAUCCCAGGAGUUUCCUCCUGCUAUCUCAACAGCUCGCAGUCAAG,0.0751
6,GGUCACGUCUCAAUCAACUCAAUUUCAGGAGUUUGCUCCUGCUUAUUCAACAGCUCGCAGUCAAG,-0.066
7,GGUCACGUCUCAAUCAACUCUUUUUCCAGGGAAAGCCCUGGUUUUUUCAACAGCUCGCAGUCAAG,-0.0886
8,GGUCACGUCUCAAUCAACUCAUCUUCAGGAGUUUACUCCUGCUUAGUCAACAGCUCGCAGUCAAG,0.342
9,GGUCACGUCUCAAUCAACUCCCCAGAGGGGGGGAAAACCCCUUUGCCCUCACAAUCAACAGCUCGCAGUCAAG,0.0366
10,GGUCACGUCUCAAUCAACUCAACUCCCAGGGAAAUCCCUGGCAAUUUCAACAGCUCGCAGUCAAG,0.115
11,GGUCACGUCUCAAUCAACUCAUCUCCCAGGGAAAACCCUGGUUUUCUCAACAGCUCGCAGUCAAG,-0.0692
12,GGUCACGUCUCAAUCAACUCCUUAGAGGGGGGGAAAACCCCUUUACCCUCAACUUCAACAGCUCGCAGUCAAG,0.489
13,GGUCACGUCUCAAUCAACUCUUCUUCCAGGGAAACCCCUGGUUAUUUCAACAGCUCGCAGUCAAG,-0.0217
14,GGUCACGUCUCAAUCAACUCUCUCGAGGGGGGGAAAACCCCUUUACCCUCUCAUUCAACAGCUCGCAGUCAAG,-0.417
15,GGUCACGUCUCAAUCAACUCUCCCGAGGGGGGGAAAACCCCUUUGCCCUCAUCAUCAACAGCUCGCAGUCAAG,-0.0262
16,GGUCACGUCUCAAUCAACUCAACUCCCAGGGAAACCCCUGGCAUUUUCAACAGCUCGCAGUCAAG,0.00921
17,GGUCACGUCUCAAUCAACUCUCAAGAGGGGGGGAAAACCCCUUUGCCCUCACAAUCAACAGCUCGCAGUCAAG,-0.0652
18,GGUCACGUCUCAAUCAACUCAUUCCCCAGGGAAAUCCCUGGUAAUUUCAACAGCUCGCAGUCAAG,0.228
19,GGUCACGUCUCAAUCAACUCAUUUUCAGGAGUUUCCUCCUGCUAAUUCAACAGCUCGCAGUCAAG,-0.00105
20,GGUCACGUCUCAAUCAACUCCUCGGAGGGGGGGAAAACCCCUUUACCCUCAUAUUCAACAGCUCGCAGUCAAG,0.374
21,GGUCACGUCUCAAUCAACUCUAUUCCCAGGGAAAGCCCUGGUAUAUUCAACAGCUCGCAGUCAAG,-0.0186
22,GGUCACGUCUCAAUCAACUCUUUAGAGGGGGGGAAAACCCCUUUGCCCUCCAAUUCAACAGCUCGCAGUCAAG,-0.457
23,GGUCACGUCUCAAUCAACUCAGUUCCAGGAGUUUACUCCUGUUUUUUCAACAGCUCGCAGUCAAG,-0.322
24,GGUCACGUCUCAAUCAACUCUAUCCCCAGGGAAACCCCUGGUAAUUUCAACAGCUCGCAGUCAAG,-0.223
